From publication PMC4336329 (PLoS ONE, 2015)
About 2,200 (0.71%) of roughly 310,000 compounds showed an effect of 50% or more. Effects have a minus sign here. The list shows a part of the results.

Each molecule was assayed against human ether-à-go-go-related gene (hERG) potassium channel (human, UniProt Q12809) (assay: primary screen, population patch clamp on CHO cells stably expressing hERG).
human ether-à-go-go-related gene (hERG) potassium channel, sequence (Q12809 whole entry, looked up): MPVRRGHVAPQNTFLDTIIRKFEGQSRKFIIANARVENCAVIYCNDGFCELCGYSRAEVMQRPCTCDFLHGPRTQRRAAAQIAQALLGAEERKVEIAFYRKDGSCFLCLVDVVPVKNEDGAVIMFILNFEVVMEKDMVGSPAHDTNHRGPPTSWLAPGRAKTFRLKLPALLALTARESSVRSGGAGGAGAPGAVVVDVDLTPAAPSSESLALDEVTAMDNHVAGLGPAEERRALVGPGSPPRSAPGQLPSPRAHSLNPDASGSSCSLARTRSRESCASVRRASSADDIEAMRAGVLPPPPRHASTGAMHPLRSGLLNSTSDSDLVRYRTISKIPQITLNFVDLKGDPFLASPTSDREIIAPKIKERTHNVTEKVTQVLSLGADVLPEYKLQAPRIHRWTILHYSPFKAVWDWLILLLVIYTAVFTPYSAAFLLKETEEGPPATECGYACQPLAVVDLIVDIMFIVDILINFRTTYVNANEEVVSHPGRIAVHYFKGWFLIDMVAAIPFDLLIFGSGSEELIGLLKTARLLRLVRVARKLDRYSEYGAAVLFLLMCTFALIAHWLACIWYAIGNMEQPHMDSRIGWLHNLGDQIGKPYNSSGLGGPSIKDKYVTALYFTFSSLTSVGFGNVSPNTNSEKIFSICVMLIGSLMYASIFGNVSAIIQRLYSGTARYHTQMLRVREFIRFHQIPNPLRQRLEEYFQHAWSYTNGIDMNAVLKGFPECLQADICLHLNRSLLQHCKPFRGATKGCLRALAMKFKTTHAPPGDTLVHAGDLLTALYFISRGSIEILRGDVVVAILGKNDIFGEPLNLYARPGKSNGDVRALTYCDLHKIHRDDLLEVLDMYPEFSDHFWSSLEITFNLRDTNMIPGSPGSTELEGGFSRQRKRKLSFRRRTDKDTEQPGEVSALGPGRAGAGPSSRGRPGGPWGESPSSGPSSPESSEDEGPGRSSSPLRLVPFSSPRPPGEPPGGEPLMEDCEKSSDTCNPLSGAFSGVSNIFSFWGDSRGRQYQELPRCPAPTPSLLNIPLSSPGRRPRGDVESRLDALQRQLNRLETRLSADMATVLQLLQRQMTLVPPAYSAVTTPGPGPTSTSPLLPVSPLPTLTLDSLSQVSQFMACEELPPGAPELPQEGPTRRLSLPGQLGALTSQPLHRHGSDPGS

SMILES | hERG current change (%, negative = inhibition) at 1uM [%]
Cc1cc(NC(=O)C(C)Sc2nc(-c3ccccc3)cc(=O)[nH]2)no1 (centres unmarked) | 9.1
Cc1cc(=O)oc2cc(Oc3ccc([N+](=O)[O-])cc3C(F)(F)F)ccc12 | 8.37
NC(=O)c1ccsc1NC(=O)COC(=O)CNC(=O)c1ccc(F)cc1 | 5.75
O=C(Nc1ccccc1)c1ccccc1C(=O)N1CCCCC1 | 10.6
COc1ccc(C(CNC(=O)CCc2ccsc2)N(C)C)cc1 (centres unmarked) | 6.89
CCCCn1c(N)c(N(CCOC)C(=O)c2ccc(Br)s2)c(=O)[nH]c1=O | -0.131
S=C(N/N=C/c1ccc(Br)cc1)N1CCCCC1 | 10.9
O=C(Cc1ccc(Cl)cc1)Nc1ccc(S(=O)(=O)N2CCOCC2)cc1 | 5.41
O=C(OC(C(=O)NCc1ccc(F)cc1)c1ccccc1)c1ccco1 (centres unmarked) | 13.8
O=C(c1ccc([N+](=O)[O-])cc1)N(Cc1ccc(Cl)cc1Cl)N1C(=O)CCCC1=O | 5.67
Cc1ccc(-n2c(SCC(=O)N3CCOCC3)nnc2-c2ccncc2)cc1 | 13.9
COc1ccc(CCNC(=O)c2cccc(Br)c2)cc1OC | 13.3
Cc1onc(-c2c(Cl)cccc2Cl)c1C(=O)N1CCc2ccccc2C1 | 16.6
O=C1[C@H]2CC3C=CC2(O3)[C@@H]2OCCCN12 (some centres unmarked) | 2.77
CC1Cc2ccccc2N1CC(=O)NC(=O)NCc1ccco1 (centres unmarked) | 1.95
CCOC(=O)CN(C(=O)CSc1nnc(CNc2ccc(F)cc2)n1C)c1ccccc1 | -9.59
COc1ccccc1N1CCN(/N=C/c2c(C)nn(-c3ccccc3)c2C)CC1 | -7.38
Cc1nc(SCCCSc2n[nH]c(C)n2)n[nH]1 | 14.2
Cc1n[nH]c(C)c1CCOc1ccc(C(C)C)cc1.Cl | 4.9
ON=Cc1cccn1-c1ccccc1 | 11.5
CCCCC(=O)Nc1ccc(S(=O)(=O)Nc2nccc(C)n2)cc1 | 1.6
COC(=O)c1ccc(C(=O)Nc2ccc(F)cc2)cc1 | 12.4
CCCn1c(N)c(Sc2ccc(C)cc2)c(=O)n(CCC)c1=O | 8.23

SMILES | hERG current change (%, negative = inhibition) at 1uM [%]
NC(=O)c1nsc(C(=O)N(CC(=O)NCc2ccc3c(c2)OCO3)C2CCCC2)c1N | 5.92
CCc1ccc2nc(SCC(=O)Nc3ccccc3N3CCOCC3)c(C#N)cc2c1 | 6.75
COc1ccc(N2CCN(c3cc(C)nc4ccc(OC)cc34)CC2)cc1 | -31
CN(C)C(=O)c1c(NC(=O)c2ccco2)sc2c1CCCCC2 | 10
CCCc1cc(=O)[nH]c(SCC(=O)NN(c2ccccc2)c2ccccc2)n1 | 7.17
N#CC(c1ccccc1)c1cnccn1 (centres unmarked) | 4.76
Cc1ccccc1OCCn1ccnc1 | 11.2
COc1ccc2oc(C(=O)C3CC3)c(N)c2c1 | 1.2
CCN(CC)CCn1c(=N)n(CC(O)COc2cccc(C)c2)c2ccccc21.Cl (centres unmarked) | -22.1
COc1cc(NC(C)=O)ccc1NC(=O)c1cc2ccccc2o1 | 17.2
COC(=O)c1c(C)oc2ccc(N(C(=O)c3ccncc3)S(=O)(=O)c3ccc4ccccc4c3)cc12 | 2.97
NC(=O)C1CCN(C2=C(Cl)C(=O)c3ccccc3C2=O)CC1 | 14
CCN(CC)S(=O)(=O)c1ccc(NN=C2CCN(C)CC2)c([N+](=O)[O-])c1 | 6.43
COc1ccc(N=Cc2c(O)n(CC3CCCO3)c(=O)[nH]c2=O)cc1 (centres unmarked) | 8.42
CCOc1ccccc1CNC(CC)CO.Cl (centres unmarked) | 13
Cc1ccc(N/C=C2\CCCCC2=O)nc1 | 7.7
CCC(=O)Nc1cccc(-c2nnc(SCC(=O)NCc3ccco3)n2C)c1 | 6.52
Cc1ccn2nc(S(=O)(=O)Nc3c(F)cccc3F)nc2n1 | 11.7
Cc1nc2ccccn2c1/C(O)=C1\C(=O)C(=O)N(CCCN(C)C)C1c1ccc(F)cc1 (centres unmarked) | 11.6
CC(C)CC(c1nnnn1Cc1ccccc1)N1CCC(C(N)=O)CC1 (centres unmarked) | 16.5
O=C(CCc1ccccc1)NC1CCSC1=O (centres unmarked) | 4.84
O=C1CCC(CCC(=O)N2CCCC(C(=O)c3ccc(Cl)cc3)C2)=NN1 (centres unmarked) | 6.56
O=[N+]([O-])c1ccccc1C1Nc2cccc3cccc(c23)N1 | 12.8

SMILES | hERG current change (%, negative = inhibition) at 1uM [%]
CCOc1ccccc1N(C(=O)c1ccccc1Cl)C1=NC(C)(C)CS1 | -4.35
O=C1CC(c2ccccc2)c2ccccc21 (centres unmarked) | 9.2
CCC(C)NC(=O)Cn1c(=O)n(-c2ccc(OC)cc2)c(=O)c2ccc(C(=O)NCc3ccc(C)cc3)cc21 (centres unmarked) | 10.1
CC(C)(C)c1cc(N2CCOCC2)n2ncc(-c3ccccc3)c2n1 | 19.2
Cc1cc(C)nc(SCC(=O)Nc2ncc(Cc3cccc(Cl)c3)s2)n1 | 2.86
Cc1ccc(-n2ncc3c(=O)n(CC#N)cnc32)cc1C | 8.35
CCOC(=O)Nc1cc(C)ccc1OC | 14.8
Nc1nc(OCC2CCCCC2)c2[nH]cnc2n1 | 3.32
Cc1ccc(S(=O)(=O)n2c(CN3CCCC(C)C3)nc3ccccc32)cc1 (centres unmarked) | -7.85
CN1C(=O)c2ccccc2OC1(C)Cc1ccccc1 (centres unmarked) | 17
O=S(=O)(Nc1ccc(S(=O)(=O)N2CCCCCC2)cc1)c1cccs1 | 12.3
CCc1cccc(N(C)C(N)=Nc2cccc3ccccc23)c1.Cl | 12.2
CCN(Cc1ccccc1)C(c1ccc(C)cc1)c1nnnn1C(C)(C)CC (centres unmarked) | 10.4
C=CCOc1cccc(C2c3c(oc4ccc(F)cc4c3=O)C(=O)N2CCCN2CCOCC2)c1 (centres unmarked) | -5.91
CC(=O)Nc1ccc(S(=O)(=O)N2CCC(C(=O)NCCc3c[nH]c4ccccc34)CC2)cc1 | 7.8
CCC(C)C(=O)Nc1nnc(-c2cccs2)s1 (centres unmarked) | 11.2
CC(=O)c1ccc(N2CCN(C(=O)c3nn(C)c4c3CS(=O)(=O)c3ccccc3-4)CC2)cc1 | -41.9
COc1cccc(NC(=O)c2oc3ccccc3c2NC(=O)C(C)(C)C)c1 | 2.12
CC1CCCCN1Cc1nc2c(c(=O)n(C)c(=O)n2C)n1CCCc1ccccc1 (centres unmarked) | 4.06
CC(=O)NC1=NN(C(C)=O)C(C)(c2ccco2)S1 (centres unmarked) | 5.66
O=C(NC(=S)Nn1cnnc1)c1ccc(F)cc1Cl | 10.3
Cc1cccc(NC(=O)CCS(=O)(=O)c2ccc3c(c2)oc(=O)n3C)c1 | 4.23
Cc1ccccc1N(CC(=O)NCCSC1CCCCC1)S(=O)(=O)c1ccccc1 | 6.29

SMILES | hERG current change (%, negative = inhibition) at 1uM [%]
Clc1ccc(-c2nc3ccncc3[nH]2)cc1 | 2.56
C=CCNC(=O)C1CCN(S(=O)(=O)c2ccc3ccccc3c2)CC1 | 2.19
COCCNC(=O)c1cc(C)ccc1C | 9.57
CCN1CCCC1CN(Cc1cc2ccc(C)cc2[nH]c1=O)C(=S)Nc1ccccc1C(=O)OC (centres unmarked) | -42.2
CCCCCC#CCN1CCN(C23CC4CC(CC(C4)C2)C3)CC1 | -15.9
O=C(NCCC(=O)N1CCC2(CC1)NCCc1[nH]cnc12)c1cccc(Cl)c1 | 13.2
COCC(C)n1c(SCc2cc(C(=O)OC)c(C)o2)nc2ccccc2c1=O (centres unmarked) | 4.87
CC(=O)Nc1ccc(NC(=O)C(C)Sc2n[nH]c(-c3ccc(C)cc3)n2)cc1 (centres unmarked) | 8.42
CCc1ccc(NC(=O)N(CCN2CCOCC2)C2CCN(C(C)=O)CC2)cc1 | 11.9
CCc1ccc(CN(C)C(=O)C2CCC(=O)N(CC3CCCCC3)C2)cc1 (centres unmarked) | -12.3
COc1ccc(C(=O)NCC(=O)N=Nc2c(O)n(C)c3ccccc23)cc1OC | 9.72
CCC(C)(C(=O)NC1CCCCC1)N(C(=O)Cc1cccs1)c1ccccc1 (centres unmarked) | -1.77
COc1ccc(/C=C/C(=O)OCCCN(C)C)cc1.Cl | -0.155
COc1cc(C(=O)OCC(=O)Nc2cc(C)on2)cc(OC)c1OC | -8.38
CCCc1ccc(C(=O)Cn2nc(C(=O)O)c3ccccc3c2=O)cc1 | 11.1
C#CCNC(=O)C1=C[C@H](c2ccccc2)C[C@H](OCCCCO)O1 | 16.8
Cc1nn2c3ccccc3nc2c2ccccc12 | -0.436
N#Cc1ccccc1OCC(=O)NC(=O)NCc1ccccc1 | 2.35
CN1C(=O)CC(NNC(=O)c2ccccc2)C1=O (centres unmarked) | 11.1
CN(Cc1nc2ccccc2n1C)S(=O)(=O)c1ccc(Cl)cc1 | 9.67
CCOC(=O)C(NC(C)=O)C(OC(C)=O)c1cccc(N(CCCl)CCCl)c1 (centres unmarked) | 9.46
COc1ccc2c(c1OC)C(=O)OC2N1C(=O)CC[C@H]1C(=O)NCC1CCCO1 (some centres unmarked) | 11.9
O=C1OC(c2ccccc2)C2(CCCC2)C(=O)C12CCCC2 (centres unmarked) | -0.322
